Laboratory results reported in the supplement of paper PMC12067230.
The data scatter; read single values as rough.

Assay: amyloid nucleation score relative to library mode (yeast Sup35 reporter selection) (log enrichment difference); higher = more amyloid nucleation; sequences are the first 22 residues of the Bri2 peptide extended by up to 12 random residues
Details: random library (experiment): 1;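 active = nucleation score significantly above 0 at FDR 0.05; inactive = not significantly above 0 or absent from output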
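Also: [psi-pin-] Saccharomyces cerevisiae expressing SupN fusions, induced by 100 µM Cu2SO4, selected 7 d at 30 °C without adenine and uracil, scored by deep sequencing of output versus input.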

Row | Sequence | amyloid nucleation score
1 | EASNCFAIRHFENKFAVETLICMIHGTVCPDFKY | inactive
2 | EASNCFAIRHFENKFAVETLICMIRRM | inactive
3 | EASNCFAIRHFENKFAVETLICMITRTPY | inactive
4 | EASNCFAIRHFENKFAVETLICMIVYRRRYMVT | inactive
5 | EASNCFAIRHFENKFAVETLICMK | 1.21
6 | EASNCFAIRHFENKFAVETLICMKGVSWGFCQLD | inactive
7 | EASNCFAIRHFENKFAVETLICMKKDVPS | inactive
8 | EASNCFAIRHFENKFAVETLICMKPGDQCCLCSE | 3.81
9 | EASNCFAIRHFENKFAVETLICMKYWSGFGRRTG | 2.28
10 | EASNCFAIRHFENKFAVETLICMLCLWGCWRWQG | 5.14
11 | EASNCFAIRHFENKFAVETLICMLDNSHGWRCPL | 2.9
12 | EASNCFAIRHFENKFAVETLICMLIGDAFRDSAW | 1.15
13 | EASNCFAIRHFENKFAVETLICMLKDEYGTSHGS | inactive
14 | EASNCFAIRHFENKFAVETLICMLKDPAYVMRYL | inactive
15 | EASNCFAIRHFENKFAVETLICMLLLFECACHPR | inactive
16 | EASNCFAIRHFENKFAVETLICMLR | 3.29
17 | EASNCFAIRHFENKFAVETLICMLSGIHTKNHGE | 3.57
18 | EASNCFAIRHFENKFAVETLICMLTMGKGARECR | inactive
19 | EASNCFAIRHFENKFAVETLICMLVLRVATAVTK | inactive
20 | EASNCFAIRHFENKFAVETLICMLVSKSIVHNVL | inactive

Row | Sequence | amyloid nucleation score
21 | EASNCFAIRHFENKFAVETLICMLVSSHSARRWG | inactive
22 | EASNCFAIRHFENKFAVETLICMLWFTRVLGTVL | inactive
23 | EASNCFAIRHFENKFAVETLICMLWSLVRTCGLL | inactive
24 | EASNCFAIRHFENKFAVETLICMLYDSFVVTFQ | inactive
25 | EASNCFAIRHFENKFAVETLICMMCMNSATGVWN | 8
26 | EASNCFAIRHFENKFAVETLICMMHAKWNINCRV | 0.872
27 | EASNCFAIRHFENKFAVETLICMMHCYNTAYGML | inactive
28 | EASNCFAIRHFENKFAVETLICMMISNNQTEIGR | 1.37
29 | EASNCFAIRHFENKFAVETLICMMKGLKRVTD | inactive
30 | EASNCFAIRHFENKFAVETLICMMKSCEDRSRSF | 4.21
31 | EASNCFAIRHFENKFAVETLICMMMGQSSAFVAS | inactive
32 | EASNCFAIRHFENKFAVETLICMMQAFMERYPED | inactive
33 | EASNCFAIRHFENKFAVETLICMMRCGHRCRG | 0.848
34 | EASNCFAIRHFENKFAVETLICMMRRWSRFMRAG | inactive
35 | EASNCFAIRHFENKFAVETLICMNGQRYLFNWRT | inactive
36 | EASNCFAIRHFENKFAVETLICMNGSVS | 2.9
37 | EASNCFAIRHFENKFAVETLICMNLLPIGLVCPW | 6.98
38 | EASNCFAIRHFENKFAVETLICMNQRLSNVMRA | 0.231
39 | EASNCFAIRHFENKFAVETLICMNRITCVWSGTE | inactive

Same assay, conditions: random library (experiment): 2

Row | Sequence | amyloid nucleation score
40 | EASNCFAIRHFENKFAVETLICMIHGCFYVHVDG | -0.104
41 | EASNCFAIRHFENKFAVETLICMIIVLK | inactive
42 | EASNCFAIRHFENKFAVETLICMIKRLCSMWQKV | inactive
43 | EASNCFAIRHFENKFAVETLICMINDSYIMIEVK | 0.456
44 | EASNCFAIRHFENKFAVETLICMIPFFGNLCSVR | 4.77
45 | EASNCFAIRHFENKFAVETLICMIRFQKATCSKR | inactive
46 | EASNCFAIRHFENKFAVETLICMIRSMCVCSMFR | 4.68
47 | EASNCFAIRHFENKFAVETLICMISFARASVLIF | inactive
48 | EASNCFAIRHFENKFAVETLICMIVEAYVFCVNT | inactive
49 | EASNCFAIRHFENKFAVETLICMKMKSILTSADH | inactive
50 | EASNCFAIRHFENKFAVETLICMKSIVRRCRG | inactive
51 | EASNCFAIRHFENKFAVETLICMKSKSNFQFFDV | 3.88
52 | EASNCFAIRHFENKFAVETLICMKVGSCGHSWWC | 6.57
53 | EASNCFAIRHFENKFAVETLICMKVKRYTFFAGC | -0.239
54 | EASNCFAIRHFENKFAVETLICMKVLMYCVDMYR | 2.5
55 | EASNCFAIRHFENKFAVETLICMKYRIEKNAYKC | inactive
56 | EASNCFAIRHFENKFAVETLICML | 7.5
57 | EASNCFAIRHFENKFAVETLICMLCPVFHWKTAQ | 7.89
58 | EASNCFAIRHFENKFAVETLICMLCYSVFRGV | inactive
59 | EASNCFAIRHFENKFAVETLICMLFVDFYYRYLG | inactive
60 | EASNCFAIRHFENKFAVETLICMLIRSFYHHRWV | 0.528
61 | EASNCFAIRHFENKFAVETLICMLLIVHDDSRGM | inactive
62 | EASNCFAIRHFENKFAVETLICMLLLMGLGSYVK | inactive
63 | EASNCFAIRHFENKFAVETLICMLLRERVARVAP | -0.315
64 | EASNCFAIRHFENKFAVETLICMLMIVSLVFVAP | 6.51

Row | Sequence | amyloid nucleation score
65 | EASNCFAIRHFENKFAVETLICMLNICGLYGMAR | 5.22
66 | EASNCFAIRHFENKFAVETLICMLNMCYVRSRVL | -0.571
67 | EASNCFAIRHFENKFAVETLICMLNNRGVSLTRG | 1.87
68 | EASNCFAIRHFENKFAVETLICMLNSVYRRLLVQ | inactive
69 | EASNCFAIRHFENKFAVETLICMLNVPTRSSGLW | 6.07
70 | EASNCFAIRHFENKFAVETLICMLRESGMGNTCW | -0.122
71 | EASNCFAIRHFENKFAVETLICMLRGNMSSDFFW | inactive
72 | EASNCFAIRHFENKFAVETLICMLSCVNGWRTPE | 5.53
73 | EASNCFAIRHFENKFAVETLICMLVIGTLCCRPL | -0.27
74 | EASNCFAIRHFENKFAVETLICMLYLSLFDFNCR | inactive
75 | EASNCFAIRHFENKFAVETLICMMDNSIPDWCGM | 5.38
76 | EASNCFAIRHFENKFAVETLICMMLESNFLAYR | inactive
77 | EASNCFAIRHFENKFAVETLICMMSLI | inactive
78 | EASNCFAIRHFENKFAVETLICMMVFDVNIRRKM | inactive
79 | EASNCFAIRHFENKFAVETLICMMYGCIMVEGTW | inactive
80 | EASNCFAIRHFENKFAVETLICMNAYMSVYSMNR | 4.36
81 | EASNCFAIRHFENKFAVETLICMNEILTNVRTVR | inactive
82 | EASNCFAIRHFENKFAVETLICMNF | 7.44
83 | EASNCFAIRHFENKFAVETLICMNFLVSIVIWVK | inactive
84 | EASNCFAIRHFENKFAVETLICMNGYIHSVCFLR | inactive
85 | EASNCFAIRHFENKFAVETLICMNLPL | 4.54
86 | EASNCFAIRHFENKFAVETLICMNNHYWLSMWRG | inactive
87 | EASNCFAIRHFENKFAVETLICMNRWYMYTCWCF | inactive
88 | EASNCFAIRHFENKFAVETLICMNSSLWF | 6
89 | EASNCFAIRHFENKFAVETLICMNTSIFDSVLFM | 6.86

Same assay, conditions: random library (experiment): 3

Row | Sequence | amyloid nucleation score
90 | EASNCFAIRHFENKFAVETLICMISITLTWAHLV | inactive
91 | EASNCFAIRHFENKFAVETLICMISPRMREAQPG | inactive
92 | EASNCFAIRHFENKFAVETLICMKMEGLIGEQCE | inactive
93 | EASNCFAIRHFENKFAVETLICMKSFRNQCVVSV | inactive
94 | EASNCFAIRHFENKFAVETLICMKSSRVSLMKGP | 2.65
95 | EASNCFAIRHFENKFAVETLICMKWEPNAKVGW | 1.12
96 | EASNCFAIRHFENKFAVETLICMKWIVAF | inactive
97 | EASNCFAIRHFENKFAVETLICMLEWLSHLVMRR | inactive
98 | EASNCFAIRHFENKFAVETLICMLFARPHSVSYK | inactive
99 | EASNCFAIRHFENKFAVETLICMLGRLGPVLGRR | inactive
100 | EASNCFAIRHFENKFAVETLICMLHRDGRFGGGG | 2.4
101 | EASNCFAIRHFENKFAVETLICMLISCVWLRVLV | inactive
102 | EASNCFAIRHFENKFAVETLICMLKNAMLEPQKA | inactive
103 | EASNCFAIRHFENKFAVETLICMLLLESL | inactive
104 | EASNCFAIRHFENKFAVETLICMLPVSTHQFSGE | 3.67
105 | EASNCFAIRHFENKFAVETLICMLQSPLHTVSIW | inactive
106 | EASNCFAIRHFENKFAVETLICMLS | 5.69
107 | EASNCFAIRHFENKFAVETLICMLTIV | inactive
108 | EASNCFAIRHFENKFAVETLICMLVFVSKFDSRC | inactive
109 | EASNCFAIRHFENKFAVETLICMLVLILNSRQSR | inactive
110 | EASNCFAIRHFENKFAVETLICMMAVLRSLCVNG | -0.274
111 | EASNCFAIRHFENKFAVETLICMMELETYLVCCW | inactive
112 | EASNCFAIRHFENKFAVETLICMMGVCAVGHFWG | 3.44
113 | EASNCFAIRHFENKFAVETLICMMMSSPYRLRNT | inactive
114 | EASNCFAIRHFENKFAVETLICMMVNTWVAKFWS | inactive
115 | EASNCFAIRHFENKFAVETLICMMVSSCSYSWKV | inactive
116 | EASNCFAIRHFENKFAVETLICMMVVALRRCSWW | 0.44
117 | EASNCFAIRHFENKFAVETLICMMWKKTQLHMAS | inactive
118 | EASNCFAIRHFENKFAVETLICMN | inactive
119 | EASNCFAIRHFENKFAVETLICMNFRRIVLDAAS | inactive
